Source: ChEMBL document CHEMBL1157539, “Thousands of chemical starting points for antimalarial lead identification” (Nature, 2010)
In all, about 13,000 compounds were measured (“IFI”: median about 4, highest 2% from about 17 on). The list shows a part of the results.

Assay: GSK_TCMDC: Inhibition Frequency Index (IFI). The number of non-kinase HTS assays where a compound showed > 50 % inhibition, expressed as a percentage of the number of such assays in which the compound was tested (-0 is zero)
Type: functional

| Structure (SMILES) | IFI [%] |
| --- | --- |
| Cc1c(S(=O)(=O)Nc2cccc(CCN3CCCCC3CCN3CCCC3)c2)sc2ccc(Cl)cc12 (centres undefined) | 12.5 |
| Cc1cc(N)nc2ccc(-c3ccc(CCN)cc3)cc12 | 4.17 |
| CCN(CC)CCN(Cc1ccc(-c2ccc(Br)cc2)cc1)C(=O)Cn1c(CCc2cccc(F)c2F)nc(=O)c2ccccc21 | 4.32 |
| CC(=O)N1N=C(c2cccs2)Sc2c1nc(-c1ccc(Cl)cc1)n2C(C)=O | 8.16 |
| CC(=O)N(C)/N=C/[C@H](CCc1ccccc1)NC(=O)[C@H](CC(C)C)NC(=O)c1cccc(OCCN2CCOCC2)c1 | 2.75 |
| O=C(Nc1cccc(-c2csc(-c3ccccc3)n2)c1)c1cccs1 | 4.35 |
| Cc1nc2ccc(NC(=O)c3cc(S(=O)(=O)N(C)C)ccc3Cl)cc2s1 | 3.39 |
| CCc1cn(C)c2c(N3CCCC3=O)cc(C(=O)N[C@@H](Cc3ccccc3)[C@H](O)CNC(C)(C)CCCC(C)C)cc12 | 3.68 |
| O=C(/C=C/c1ccc(Cl)c(Cl)c1)NCCCCCN1CCC(NC(=O)c2ccc(F)c(F)c2)CC1 | 6.35 |
| O=[N+]([O-])c1cccc(Nc2nccc(-c3cnn4ncccc34)n2)c1 | 11.1 |
| O=[N+]([O-])c1cc(/C=N/Nc2nc3nonc3nc2Nc2ccc(F)cc2)c(Cl)cc1Cl | 4.58 |
| O=C(Nc1cccc(-c2ccc(-c3nc4cc(C(F)(F)F)ccc4[nH]3)s2)c1)c1ccncc1 | 6.48 |
| CCc1cc(I)c2c(c1)C(NCCCNc1cc(=O)c3ccccc3[nH]1)CCN2 (centres undefined) | 3.62 |
| COc1cc(Cc2cnc(N)nc2N)cc(OCCCCCC(N)=O)c1OC | 0.74 |
| O=C(N[C@@H](Cc1ccccc1)C(=O)NC1CCCc2ccccc21)c1ccc(O)c(-c2ccc(Cl)c(Cl)c2)c1 (some centres undefined) | 2.22 |
| N#Cc1cccc(NC(=O)Nc2cccc(-c3cccc(-c4nc5cc(F)ccc5[nH]4)c3)c2)c1 | 9.09 |
| COc1ccc(-c2ccc(NC(=O)c3ccc(C#N)cc3)cc2)cc1CN1CCC(O)CC1 | 2.97 |
| Cc1cccc2nc(-c3ccc(-c4ccc(CNCc5ccccc5)cc4)cc3)[nH]c12 | 3.88 |
| O=C(Nc1cc(C(F)(F)F)cc(C(F)(F)F)c1)Nc1ccc(Cl)c(Cl)c1 | 19.1 |
| COCCCn1c(=N)c(C(=O)NCCc2ccc(OC)cc2)cc2c(=O)n3cccc(C)c3nc21 | 1.72 |
| Cc1cccc2nc(-c3ccc(-c4cccc(NC(=O)Nc5ccc(Cl)c(Cl)c5)c4)s3)[nH]c12 | 5 |
| CC(C)c1ccc(Nc2nc(NCCc3c[nH]cn3)nc(NCc3ccccc3)n2)cc1 | 1.5 |
| O=C(CNC1=NCCN1)Nc1ccc(NC(=O)Nc2ccc(NC(=O)CNC3=NCCN3)cc2)cc1 | 1.54 |

| Structure (SMILES) | IFI [%] |
| --- | --- |
| c1ccc2c(c1)cc(CNCCCN1CCN(CCCNCc3cc4ccccc4c4ccccc34)CC1)c1ccccc12 | 19.4 |
| CC(Cc1ccc(C(=O)N2CCN(C(=O)c3ccc(CC(C)NCCc4cccc(Cl)c4)cc3)CC2)cc1)NCCc1cccc(Cl)c1 (centres undefined) | 9.29 |
| COc1cc(C2CCN(CCCCNC(=O)c3ccc(NC(=O)c4cc(C(F)(F)F)cc(C(F)(F)F)c4)cc3)CC2)ccc1OC(C)C | 7.83 |
| Oc1cccc(CCNCCCCCCNCCc2ccc(Cl)cc2)c1 | 2.94 |
| CCOc1cccc(C(=O)Nc2nonc2-c2ccc(OC)c(OC)c2)c1 | -0 |
| COc1ccc(-n2ccnc2SCC(=O)Nc2cccc(C(F)(F)F)c2)c(OC)c1 | 1.53 |
| O=C(CCc1c[nH]cn1)Nc1ccc(-c2ccc(-c3nc4cc(F)ccc4[nH]3)cc2)cc1 | 6.48 |
| CNCCNCc1cccc(-c2cccc(-c3nc4cccc(C)c4[nH]3)c2)c1 | 7.84 |
| CC(=O)N1CCN(c2ccc(NC(=O)c3oc(-c4ccccc4)nc3C(F)(F)F)cn2)CC1 | 0 |
| COc1ccc(CNCc2ccc(-c3ccc(-c4nc5cc(C(F)(F)F)ccc5[nH]4)s3)cc2)cc1 | 11.5 |
| COc1cc(-c2nc(-c3ccc([N+](=O)[O-])cc3)c(-c3ccccc3)[nH]2)cc(OC)c1O | 3.5 |
| COc1cc2nc(NCCCN3CCCCC3)nc(NCc3ccccc3)c2cc1OC | 4.76 |
| COc1cccc(O)c1CN1CCC2(CCCN(Cc3ccc(F)cc3)C2)C1 (centres undefined) | 2.44 |
| Cc1cccc2c1NC(=O)/C2=N/NC(=S)N(C)C | 9.52 |
| COc1ccc(NC(=O)/C=C/c2ccc(Cl)c(C(F)(F)F)c2)cc1OCCN(C(C)C)C(C)C | 7.41 |
| O=C(NCCCN1CCOCC1)c1cccc(Nc2nccc(Nc3ccc(Oc4ccccc4)cc3)n2)c1 | 8.51 |
| CCOc1c(OC)ccc2c1CCN(CCN1CCC(NC(=O)c3ccc(-c4cccc(C(F)(F)F)c4C(F)(F)F)cc3)CC1)C2 | 6.92 |
| Cc1ccc(CN2CCN(c3cc4c(cc3Cl)CCN4C(=O)Cc3ccc(Cl)c(NC(=O)Nc4cccc(C#N)c4)c3)CC2)cc1 | 0.8 |
| N#Cc1ccc(CNCCCCCCCNCc2ccc(-c3ccccc3)cc2)cc1 | 5 |
| CC1(C)CC2CC(C)(CN2C(=O)c2cc(C(C)(C)C)nn2Cc2ccccc2)C1 (centres undefined) | 5.36 |
| COc1ccc(S(=O)(=O)NC2CCN(c3ccc(C(F)(F)F)cc3NC(=O)OCC(C)C)CC2)cc1 | -0 |
| CC(C)c1ccc(NC(=O)Nc2ccc(Cn3ncc(N4CCCNCC4)c(Cl)c3=O)cc2)cc1 | 11.6 |
| CN(C)CCNCc1nc(-c2ccc3c(Nc4ccc(Cl)cc4F)ccnc3c2)cs1 | 3.6 |

| Structure (SMILES) | IFI [%] |
| --- | --- |
| CC(=O)Nc1cccc(C(=O)Nc2cccc(-c3ccc(-c4nc5cc(C(F)(F)F)ccc5[nH]4)s3)c2)c1 | 6.03 |
| COc1ccc(C2C(C(=O)Nc3ccc4c(c3)OCO4)c3cc(OC)c(OC)cc3C(=O)N2C)cc1 (centres undefined) | -0 |
| CC(C)Oc1cc(-c2ccc(S(C)(=O)=O)cc2)nc(N(Cc2cccc(F)c2F)Cc2cccc(F)c2F)n1 | -0 |
| O=C1C(c2ccccc2)=C(Nc2ccc(OC(F)(F)F)cc2)c2ccccc21 | 0.76 |
| CC(C)CC(=O)N1CCNC[C@@H]1C(=O)NCCSCc1c(F)cccc1Cl | 0.7 |
| CN(Cc1cccc(F)c1)C1CCN(c2cc(NC(=O)c3cccc(F)c3)ccn2)CC1 | -0 |
| COC(=O)c1ccc(OCC(O)CO)cc1O (centres undefined) | -0 |
| Cc1nc2ccc3ccc(CNc4ccc(C(=O)N[C@@H](CCC(=O)O)C(=O)N[C@@H](Cc5cccs5)C(=O)O)c(F)c4)cc3c2c(=O)[nH]1 | 1.56 |
| COC(=O)c1cccc(CNCc2cccc(-c3ccc(-c4nc5ccccc5[nH]4)cc3)c2)c1 | 7.84 |
| Cc1cc(NC(=O)c2cccs2)ccc1OC1CCN(Cc2ccccc2)CC1 | 3.33 |
| NC(=O)c1cc2nc(Nc3ccc(F)cc3)nc(Nc3ccc(S(N)(=O)=O)cc3)c2[nH]1 | 4.76 |
| Cc1cc(N(C)C)nc(Nc2ccc(NC(=O)c3ccc(Br)o3)cc2)n1 | 1.96 |
| Nc1ncc(-c2ccc3ncccc3c2)c(N)n1 | 2.67 |
| COc1ccc(CCNC(=O)c2ccccc2O)cc1-c1ccc(C(C)(C)C)cc1 | 3.91 |
| O=C1OC(c2ccccc2)(c2ccccc2)CN1CC1CCN(Cc2ccc(O)c(Cl)c2)CC1 | 7.87 |
| Cn1cc(CN2CCCC(COC(c3ccc(F)cc3)c3ccc(F)cc3)C2)cn1 (centres undefined) | 4.62 |
| CCCCN1CCN(CCCNc2c3ccccc3nc3ccccc23)CC1 | 5.63 |
| COc1ccc(CN2CCC(NCc3ccc(C(F)(F)F)cc3)CC2)cc1 | 4.7 |
| CC(=NNC(=N)N)c1ccc2ccc3ccccc3c2c1 | 4.38 |
| CCOC(=O)N1CCC(NC(=O)c2ccc(C(C)(C)C)cc2OC)CC1 | 0.75 |
| COc1ccc(NC(=O)NC2CCN(CCCCCNC(=O)/C=C/c3ccc(Cl)c(Cl)c3)CC2)cc1 | 2.01 |
| CN1CCN(c2ccc(Nc3c(C(N)=O)cnc4cc(-c5ccoc5)ccc34)cc2C(F)(F)F)CC1 | 4.2 |
| O=c1cc(NCCCNCc2ccc(Cl)c(Cl)c2)[nH]c2ccc(Cl)cc12 | 4.14 |

| Structure (SMILES) | IFI [%] |
| --- | --- |
| Cn1nc(-c2ccc(NC(=O)Nc3cc(C(F)(F)F)cc(C(F)(F)F)c3)c(F)c2)c2cnc(NCCN3CCOCC3)nc21 | 2.88 |
| c1ccc2cc3c(NCCN4CCOCC4)ccnc3cc2c1 | 0 |
| O=C(N1CCN(c2ccc(C(F)(F)F)cc2[N+](=O)[O-])CC1)C(Cl)(Cl)Cl | 3.96 |
| CCn1nc(C(=O)NC2CCOc3ccccc32)c2ccccc2c1=O (centres undefined) | 2.04 |
| COc1ccc(N2CCN(CCCC/C=C/c3ccc(NC(=O)c4cc(Cl)cc(Cl)c4)cc3)CC2)c(OC)c1 | 2.65 |
| c1cc(Cc2ccc(Nc3c4ccccc4nc4ccccc34)cc2)cc(Nc2c3ccccc3nc3ccccc23)c1 | 5.22 |
| Cc1c(C(=O)C2CC2CN2CCC(N3CCCC3)CC2)sc2ccccc12 (centres undefined) | 4.85 |
| Cc1ccc(NC(=N)Nc2ncccc2OCc2c(F)cccc2Cl)cc1 | 22 |
| COc1ccc(C=NN=c2cc(C)[nH]c3ccccc23)c(OC)c1 | 6.62 |
| O=C(c1ccc(-c2ccccn2)s1)N1CCc2cc3nccc(N4CCN5CCC[C@H]5C4)c3cc21 | 2.99 |
| COC(=O)c1ccc(NC(=O)Nc2cccc(CCNCc3ccccc3)c2)cc1 | 3.55 |
| COCCn1c(C)cc(C(=O)CN2C(=O)NC(C)(c3ccc(C(C)(C)C)cc3)C2=O)c1C (centres undefined) | 10.1 |
| CCn1cnc2c(Nc3cccc([N+](=O)[O-])c3)nc(N3CCC(N4CCCCC4)CC3)nc21 | 7.69 |
| Cc1ccccc1C1CCN(C2CCC(NC(=O)/C=C/c3cccc(F)c3F)CC2)CC1 (centres undefined) | 8.33 |
| Clc1nc(Cl)c2c(ccn2Cc2ccccc2)n1 | 0.74 |
| Cc1cc(Nc2ccncc2)n2nc(C)c(-c3ccc(Cl)cc3)c2n1 | 1.69 |
| COc1cc(Cc2cnc(N)nc2N)ccc1OCc1ccc(F)c(F)c1 | 3.52 |
| CCC(CC)(Cc1ccccc1)NC(=O)[C@H](CC1CCCCC1)Nc1ccc(C#N)c2ccccc12 | 0.95 |
| Cc1cc(N[C@@H](CC(C)C)C(=O)NCc2cccc(F)c2)nc(Nc2ccccc2)n1 | -0 |
| CCN(CC)CCN(Cc1ccc(-c2ccc(C(F)(F)F)cc2)cc1)C(=O)Cn1c(CCc2ccc(F)cc2)nc(=O)c2ccccc21 | 8.21 |
